The whole screen tested about 150,000 compounds, of which about 540 (0.36%) showed an effect of 50% or more. This is one part of the list.

The test system of this assay is Plasmodium falciparum. The assay can be described thus: Primary screen in NF54 nanoGlo assay, in single point, at 2uM, 72h; a lower Z score goes with more inhibition. Type of assay: functional, Erythrocyte. The conditions noted are these: timepoint 72 hour.
A word on the % Inhibition: it is the drop in the measured response relative to a control, in per cent. With `CCN(C(=O)CCN1CCCO1)C1CCCCCC1`, the “% Inhibition” value is reported as -10% and the Z score is recorded as 2.06.

With `COc1ccc2cc3n(c2c1)C[C@@](C)(C(=O)NC1CCCCCC1)N(CCN1CCCCCC1)C3=O`, the “% Inhibition” value is given as 2% and the Z score was -0.31.

On to `CCOc1nccn2c(CNC(=O)COc3ccccc3C)nnc12`, for which the “% Inhibition” value is 8% and the Z score was -0.98.

With `Cn1ncc2c(N3CCO[C@H](c4ccccc4)C3)ncnc21`, the “% Inhibition” value was -4% and the Z score is on record as 0.54.

As for `COc1ccc(CN2C[C@@H](CO)[C@H](NC(=O)c3cccnc3)C2)cc1`, the “% Inhibition” value is given as -14% and the Z score is listed as 2.34.

As for `COc1ncnc(C)c1-c1ccc(C(=O)N[C@@H](CC(C)C)C(N)=O)cc1`, the “% Inhibition” value was -3% and the Z score is 0.46.

Take `CCN(CC)C(=O)c1cncn1-c1cccc(-c2ccc(OC)c(OC)c2)c1`: the “% Inhibition” value was 6% and the Z score is on record as -0.58.

Consider `CN(Cc1nnnn1CC(F)(F)F)c1cnn(C)c1`, for which the “% Inhibition” value is listed as -3% and the Z score is 0.66.

Consider `N#CC1CN(C(=O)CS(=O)(=O)C2CCCC2)CC12C(=O)Nc1ccccc12` (stereo not given), for which the “% Inhibition” value is -4% and the Z score is reported as 0.44.

In the case of `c1ccc2nc(-c3nc(C4CC4)no3)cnc2c1`, the “% Inhibition” value is on record as -7% and the Z score turned out to be 1.45.

`CCOc1cc(CNC(=O)N2CCC3(CCC(=O)NC3)CC2)ccc1OC`: the “% Inhibition” value was 5% and the Z score is given as -0.68.

In the case of `CCC(CC)C(=O)Nc1cccc(O)c1`, the “% Inhibition” value is on record as 35% and the Z score is -4.47.

Take `CN1CCN([C@H]2CN(Cc3c[nH]nc3-c3ccc(F)cc3)C[C@@H]2O)CC1`: the “% Inhibition” value is reported as -6% and the Z score is recorded as 0.9.

With `NC(=O)N1CCC[C@H](C(=O)Oc2cccc3c2CCCC3)C1`, the “% Inhibition” value was 0% and the Z score was determined as 0.06.

In the case of `O=C(Cn1nnc2ccccc21)NCc1nccnc1-c1ccsc1`, the “% Inhibition” value is 7% and the Z score is reported as -0.91.

On to `O=C(Cc1ccoc1)NC1CC2OCCCC12` (stereo not given), for which the “% Inhibition” value is reported as 11% and the Z score is recorded as -1.07.

As for `CCc1cc(C(=O)N[C@H]2C[C@@H](c3cc(NCCO)ncn3)C2)ccn1`, the “% Inhibition” value was -7% and the Z score was 0.61.

Take `CCn1nc(CO)c2c1CCN(C(=O)N[C@@H](C)c1cc(F)cc(F)c1)C2`: the “% Inhibition” value is on record as -1% and the Z score came to 0.11.

As to `Cc1ccc(CNCCc2nnc[nH]2)c(Br)c1`, the “% Inhibition” value was -6% and the Z score came out at 0.56.

For `O=C(c1ccc(-c2cn[nH]c2)o1)N1CCCCC1`, the “% Inhibition” value is -13% and the Z score came out at 1.3.

Turning to `CCCc1nc(N2CCC(CNC(=O)Cn3cnnn3)CC2)no1`, the “% Inhibition” value was -14% and the Z score was 1.5.

Turning to `Cc1nnc2ncc(-c3cccc(N(C)C)c3)cn12`, the “% Inhibition” value is on record as -5% and the Z score came out at 0.85.

Turning to `O=C(Cn1cccn1)Nc1cc(C2CCCC2)[nH]n1`, the “% Inhibition” value is listed as -9% and the Z score is given as 1.45.

`Cc1ccc(C)c(OCc2nc(CC(=O)NC3CC3)cs2)c1`: the “% Inhibition” value is listed as -8% and the Z score was determined as 1.15.

In the case of `COc1ccc(-c2cnc3nnc(C)n3c2)c(-n2cccn2)c1`, the “% Inhibition” value was 11% and the Z score is recorded as -2.1.

Source of the values: ChEMBL document CHEMBL4888484, “Replenishing the malaria drug discovery pipeline: Screening and hit evaluation of the MMV Hit Generation Library 1 (HGL1) against asexual blood stage Plasmodium falciparum ,using a nano luciferase reporter read-out” (2022).
